# From the BET-seq Pho4 binding data (Le et al. 2018)
# The other results are listed elsewhere or left out. The energies were worked out here from pooled read counts, against the library average; single values are noisy.
# Target: T1, Pho4 (S. cerevisiae) (UniProt P07270)
# T1 sequence: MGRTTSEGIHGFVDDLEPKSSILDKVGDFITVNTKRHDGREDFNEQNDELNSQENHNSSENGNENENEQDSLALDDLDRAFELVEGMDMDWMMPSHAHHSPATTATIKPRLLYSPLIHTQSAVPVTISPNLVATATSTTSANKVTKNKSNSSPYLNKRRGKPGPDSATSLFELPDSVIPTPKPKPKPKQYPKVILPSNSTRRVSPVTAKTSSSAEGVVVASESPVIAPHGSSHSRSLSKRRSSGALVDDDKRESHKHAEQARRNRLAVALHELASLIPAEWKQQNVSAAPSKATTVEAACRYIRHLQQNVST
# Assay: relative binding free energy (BET-seq); higher = weaker binding
# Details: reference: library average
row,Sequence,relative binding free energy
1,ATGTGCACGTGGTATG,-0.15 kcal/mol
2,TACTGCACGTGTGATA,0.14 kcal/mol
3,TGTGGCACGTGAATGT,0.25 kcal/mol
4,CATTTCACGTGTTTAT,0.14 kcal/mol
5,AAAGTCACGTGGGTAT,-0.02 kcal/mol
6,GATAACACGTGTTTAT,0.01 kcal/mol
7,TGGGGCACGTGACATT,0 kcal/mol
8,TGAGTCACGTGTGGCT,0.17 kcal/mol
9,GTTGGCACGTGAGACG,0.27 kcal/mol
10,ATTGGCACGTGATGAT,-0.02 kcal/mol
11,GGTTACACGTGGGAAA,0.09 kcal/mol
12,TTTGCCACGTGGTGGC,-0.13 kcal/mol
13,ACTTGCACGTGGTTAA,-0.1 kcal/mol
14,TACATCACGTGAGGTT,0.4 kcal/mol
15,TTTGACACGTGTGGGT,0.09 kcal/mol
16,TCCGTCACGTGGAGGT,0.03 kcal/mol
17,ATTTGCACGTGGCGGA,0.01 kcal/mol
18,GGTCTCACGTGGGCGT,0.06 kcal/mol
19,GGATTCACGTGTGGAG,0.39 kcal/mol
20,CGAGGCACGTGAAGGA,0.34 kcal/mol
21,AAAAGCACGTGTGAAT,0.09 kcal/mol
22,GTTATCACGTGTGTAC,0.14 kcal/mol
23,GTTCTCACGTGGAATG,0.56 kcal/mol

row,Sequence,relative binding free energy
1,GTGGACACGTGTTCTT,0.08 kcal/mol
2,GATGTCACGTGGTGAC,0.08 kcal/mol
3,GGTGACACGTGGCCGG,-0.06 kcal/mol
4,ATGGCCACGTGGAGTT,-0.01 kcal/mol
5,GTTAACACGTGATTTA,0.14 kcal/mol
6,GAAGTCACGTGGTCGG,-0.08 kcal/mol
7,TTAGTCACGTGTCTGG,0.15 kcal/mol
8,AGTGACACGTGTTAAT,0.07 kcal/mol
9,GTAAGCACGTGTGCTT,0.07 kcal/mol
10,ATGGCCACGTGGTCTG,-0.13 kcal/mol
11,TTTTGCACGTGTACAG,-0.06 kcal/mol
12,AGGAACACGTGAGGGA,0.39 kcal/mol
13,CTTGCCACGTGATGGG,0.1 kcal/mol
14,TCGGACACGTGTTTTT,0.09 kcal/mol
15,TGAACCACGTGTTTTT,0.04 kcal/mol
16,GGTGACACGTGTGTAA,-0.02 kcal/mol
17,TTTCGCACGTGAGGGT,0.05 kcal/mol
18,TTTGACACGTGTAGCG,0.12 kcal/mol
19,GGGGGCACGTGTATGG,-0.04 kcal/mol
20,GGTGCCACGTGGAGGA,-0.05 kcal/mol
21,CAGTGCACGTGTGGTA,0.1 kcal/mol
22,TCTCACACGTGTGTGT,0.16 kcal/mol
23,ATAACCACGTGGTGGG,-0.13 kcal/mol

row,Sequence,relative binding free energy
1,TTTCACACGTGGTTTT,0.09 kcal/mol
2,ATGATCACGTGCGGGG,0.23 kcal/mol
3,GATCTCACGTGGGAGG,0.26 kcal/mol
4,TGAGCCACGTGCTGGG,-0.2 kcal/mol
5,AATAGCACGTGGGTTC,-0.21 kcal/mol
6,TCCGACACGTGGTGGT,0.09 kcal/mol
7,TGTCTCACGTGGGATT,0.03 kcal/mol
8,TGCATCACGTGGTCTT,0.06 kcal/mol
9,TTAGCCACGTGTAGTT,-0.08 kcal/mol
10,CGTGGCACGTGGGGGT,-0.21 kcal/mol
11,AGAGGCACGTGAGAAT,0.15 kcal/mol
12,TCAATCACGTGAGGTG,0.47 kcal/mol
13,GAGGTCACGTGAGGCG,0.33 kcal/mol
14,TGAATCACGTGTGGGA,0.19 kcal/mol
15,TGTATCACGTGCAGGT,0.05 kcal/mol
16,AGGGCCACGTGATGGA,-0.01 kcal/mol
17,CATTGCACGTGTAGGA,0.05 kcal/mol
18,GGAAACACGTGGTGGA,0.04 kcal/mol
19,CGTTTCACGTGGAAGG,0.26 kcal/mol
20,AGGGTCACGTGTGCGG,0.08 kcal/mol
21,TGACGCACGTGGTGGG,-0.08 kcal/mol
22,TCTGTCACGTGGGGTC,-0.1 kcal/mol
23,TGGAGCACGTGATTTT,0.14 kcal/mol

row,Sequence,relative binding free energy
1,ATGTTCACGTGTGTAT,0.28 kcal/mol
2,GTGCGCACGTGTAGGA,-0.03 kcal/mol
3,ATTTTCACGTGATGGG,0.3 kcal/mol
4,GGCTTCACGTGGTACG,0.37 kcal/mol
5,CGGGCCACGTGTGAGG,-0.08 kcal/mol
6,TACTGCACGTGACGTT,0.32 kcal/mol
7,TATGACACGTGAGGAG,0.37 kcal/mol
8,CTATTCACGTGATGGG,0.36 kcal/mol
9,CGTCGCACGTGGGGGT,-0.34 kcal/mol
10,ATGGACACGTGTACGG,0.11 kcal/mol
11,TTTATCACGTGTAGAT,0.37 kcal/mol
12,GGGTACACGTGTTAAG,0.13 kcal/mol
13,TGGGGCACGTGTCGAT,-0.01 kcal/mol
14,GTGAGCACGTGTTTGG,0.08 kcal/mol
15,CTGTACACGTGATTGT,0.11 kcal/mol
16,AGGGACACGTGATTTT,0.26 kcal/mol
17,CTGTGCACGTGGATGT,-0.08 kcal/mol
18,CTTTACACGTGGTGAG,0.17 kcal/mol
19,GTGATCACGTGTTTAA,0.05 kcal/mol
20,TGCATCACGTGGTTAG,0.1 kcal/mol
21,TATGGCACGTGTACGT,-0.05 kcal/mol
22,AATTTCACGTGGTAAT,0.24 kcal/mol
23,TATGGCACGTGTAAGC,0.13 kcal/mol

row,Sequence,relative binding free energy
1,TCGCGCACGTGTAGGT,-0.11 kcal/mol
2,AAAGACACGTGGTTGG,-0.16 kcal/mol
3,GGGTCCACGTGTGAGT,0.14 kcal/mol
4,TTAGGCACGTGGTTCA,-0.21 kcal/mol
5,CGGTACACGTGGCATG,0.07 kcal/mol
6,AAGATCACGTGGGGCA,0.1 kcal/mol
7,ATATGCACGTGAGGAG,0.02 kcal/mol
8,TATGTCACGTGATTAG,0.28 kcal/mol
9,TCATGCACGTGTGTGG,0 kcal/mol
10,TGACACACGTGGGTTT,-0.16 kcal/mol
11,GTCCTCACGTGGGGGG,0.1 kcal/mol
12,TTTCTCACGTGATTCG,0.41 kcal/mol
13,AGTTACACGTGGGTTA,0.1 kcal/mol
14,GTGTTCACGTGCAGTG,0.25 kcal/mol
15,TTTCTCACGTGAGCTG,0.4 kcal/mol
16,GGAGTCACGTGGGCTT,0.21 kcal/mol
17,AGCGTCACGTGGGTGC,-0.07 kcal/mol
18,CTGTACACGTGGTTGT,0.03 kcal/mol
19,ATGGTCACGTGTACAT,0.07 kcal/mol
20,GGCATCACGTGGGGAT,0.15 kcal/mol
21,GTGGGCACGTGCGGAA,-0.24 kcal/mol
22,ATTATCACGTGGACTG,0.12 kcal/mol
23,TTAGGCACGTGGAGGC,-0.15 kcal/mol
